{
  "source": "PubChem BioAssay (Tox21)",
  "key": {"[1]": {"test": "qHTS assay to identify small molecule antagonists of the retinoid acid receptor (RAR) signaling pathway - cell viability counter screen (AID 1159551); also: nearly all actives have a fitted effect of over 35% in size", "details": "C3RL4 cells viability, ATP luminescence (CellTiter-Glo), 6 h; series mostly up to 92.4 µM", "summary_of_the_method": "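Cytotoxicity counter screen: ATP content quantified by CellTiter-Glo luminescence in C3RL4 cells treated 6 hr at 37 C with compound and retinol (1 uM final). Cells plated at 1,000/well and cultured overnight before dosing.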"}, "[2]": {"test": "qHTS assay to identify small molecule antagonists of the estrogen related receptor (ERR) signaling pathway from Tox21 library - cell viability counter screen (AID 1224834); also: nearly all actives have a fitted effect of over 30% in size", "details": "ERR reporter cells viability, CellTiter-Fluor, 17.5 h; series mostly up to 92.4 µM", "summary_of_the_method": "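CellTiter-Fluor fluorescence, read after 30 min at 37 C, measures viability of ERR cells. Cells plated at 2,000/well and incubated 6 h before pin-tool compound addition, then exposed 17.5 hours at 37 C.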"}, "[3]": {"test": "qHTS assay to identify small molecule agonists of the constitutive androstane receptor (CAR) signaling pathway - cell viability counter screen (AID 1224836); also: nearly all actives have a fitted effect of over 45% in size", "details": "HepG2-CYP2B6-hCAR viability, CellTiter-Fluor, 23 h, PK11195 added to every well; series mostly up to 92.4 µM", "summary_of_the_method": "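HepG2 cells stably carrying hCAR and a CYP2B6-2.2kb reporter were plated 4 h, then given compounds at 15 concentrations plus PK11195 (final 0.75 uM). After 23 h at 37 C, viability was read by CellTiter-Fluor fluorescence.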"}, "[4]": {"test": "qHTS assay to identify small molecule antagonists of the constitutive androstane receptor (CAR) signaling pathway - cell viability counter screen (AID 1224837); also: nearly all actives have a fitted effect of over 45% in size", "details": "HepG2-CYP2B6-hCAR viability, CellTiter-Fluor, 23 h, co-treated with 50 nM CITCO; series mostly up to 92.4 µM", "summary_of_the_method": "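Cytotoxicity counter-screen: CellTiter-Fluor fluorescence after 23 h compound exposure (15-point qHTS) in double-stable HepG2-CYP2B6-hCAR cells, with 50 nM CITCO added.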"}, "[5]": {"biological_target": "Nuclear receptor subfamily 1 group I member 3 (Homo sapiens) (UniProt Q14994)", "sequence (Q14994 whole entry, looked up)": "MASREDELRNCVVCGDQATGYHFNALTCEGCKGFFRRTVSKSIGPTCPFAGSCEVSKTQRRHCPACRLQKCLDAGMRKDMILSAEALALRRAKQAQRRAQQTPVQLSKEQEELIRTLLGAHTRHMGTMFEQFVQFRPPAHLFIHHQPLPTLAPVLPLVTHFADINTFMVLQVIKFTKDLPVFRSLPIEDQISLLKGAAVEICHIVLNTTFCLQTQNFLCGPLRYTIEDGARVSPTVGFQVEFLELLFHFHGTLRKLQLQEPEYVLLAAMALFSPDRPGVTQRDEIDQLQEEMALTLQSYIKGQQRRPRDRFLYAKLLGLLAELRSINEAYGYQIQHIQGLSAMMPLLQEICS", "test": "qHTS assay to identify small molecule antagonists of the constitutive androstane receptor (CAR) signaling pathway (AID 1224838); also: nearly all actives have a fitted effect of over 40% in size", "details": "HepG2-CYP2B6-hCAR luciferase, CITCO-stimulated, 24 h; series mostly up to 92.4 µM", "summary_of_the_method": "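Antagonism measured as luciferase signal (ONE-Glo, 30 min, room temperature) in CAR-stimulated cells: HepG2-CYP2B6-hCAR double-stable line exposed 24 hr at 37 C to compound in a 15-point series plus 50 nM CITCO.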"}, "[6]": {"biological_target": "Thyrotropin receptor (Homo sapiens) (UniProt P16473)", "sequence (P16473 whole entry, looked up)": "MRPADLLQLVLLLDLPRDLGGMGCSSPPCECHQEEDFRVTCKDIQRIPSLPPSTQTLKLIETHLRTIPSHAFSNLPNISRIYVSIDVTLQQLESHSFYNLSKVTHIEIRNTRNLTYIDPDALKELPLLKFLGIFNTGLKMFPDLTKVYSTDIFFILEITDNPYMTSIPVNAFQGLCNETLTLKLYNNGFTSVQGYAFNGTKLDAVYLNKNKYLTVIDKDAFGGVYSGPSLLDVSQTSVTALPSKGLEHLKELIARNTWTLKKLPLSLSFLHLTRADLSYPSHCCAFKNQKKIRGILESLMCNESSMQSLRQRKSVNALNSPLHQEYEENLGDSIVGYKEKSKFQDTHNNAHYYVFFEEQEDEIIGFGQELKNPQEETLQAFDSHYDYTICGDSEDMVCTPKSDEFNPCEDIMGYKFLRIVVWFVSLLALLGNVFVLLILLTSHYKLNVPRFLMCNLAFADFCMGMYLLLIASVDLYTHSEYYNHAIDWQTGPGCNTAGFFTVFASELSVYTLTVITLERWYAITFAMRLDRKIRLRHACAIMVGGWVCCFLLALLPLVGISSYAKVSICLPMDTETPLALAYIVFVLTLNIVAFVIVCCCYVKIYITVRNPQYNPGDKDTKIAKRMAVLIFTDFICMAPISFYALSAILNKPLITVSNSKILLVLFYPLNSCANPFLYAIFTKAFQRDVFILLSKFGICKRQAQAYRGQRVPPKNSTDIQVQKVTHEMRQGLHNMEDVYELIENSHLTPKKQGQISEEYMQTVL", "test": "qHTS assay to identify small molecule agonists of the thyroid stimulating hormone receptor (TSHR) signaling pathway (AID 1224843; calls by dose curve; also: nearly all actives have a fitted effect of over 45% in size; as to activation: % is scaled to controls: 0 for no effect and ±100 for the full control effect)", "details": "TSHR-HEK293 cells, cAMP HTRF, agonist mode, 30 min; activation: at 92.4 µM (top of the series) unless noted", "summary_of_the_method": "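Compounds are titrated over 15 concentrations, in triplicate, onto TSHR-HEK293 cells seeded at 800/well. Plates sit 30 min at room temperature before cAMP-d2 and anti-cAMP cryptate are added; signal is read after a further hour.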"}, "[7]": {"test": "qHTS assay to identify small molecule agonists of the hypoxia (HIF-1) signaling pathway - cell viability counter screen (AID 1224844; calls by dose curve; also: nearly all actives have a fitted effect of over 50% in size)", "details": "HRE-bla ME-180 viability, CellTiter-Glo luminescence, 17 h; series mostly up to 76.8 µM", "summary_of_the_method": "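Cytotoxicity measured by CellTiter-Glo ATP luminescence in the wells also read for beta-lactamase signal. Cells were HRE-bla ME-180 (2,000/well, 0.5% dialyzed FBS), exposed to compounds for 17 h at 37C.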"}, "[8]": {"test": "qHTS assay to identify small molecule antagonists of the retinoic acid receptor (RAR) signaling pathway (AID 1159552; also: nearly all actives have a fitted effect of over 50% in size)", "details": "C3RL4 RARE luciferase reporter, retinol-stimulated, 6 h; series mostly up to 92.4 µM", "summary_of_the_method": "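RARE-luc C3RL4 cells; cpds + 1 uM (final) retinol, 6 hr, 37 C/5% CO2; luciferase reagent, 30 min RT, luminescence readout. Inhibitors of retinol-driven signal scored.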"}, "[9]": {"test": "qHTS assay to identify small molecule antagonists of the estrogen related receptor signaling pathway with the pleiotropic PPARgamma coactivator (PGC) from Tox21 10K library - cell viability counter screen (AID 1224840; active = well fitted cell-killing curve with a large enough effect in the repeat runs, not every such curve was filed as active; inconclusive = weak or mixed curves, or effect the other way; inactive = no such curve, though single readings can be large or run the other way; also: nearly all actives have a fitted effect of over 40% in size)", "details": "PGC/ERR reporter cells viability, CellTiter-Fluor, 17.5 h; series mostly up to 92.4 µM", "summary_of_the_method": "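Counter-screen for cytotoxicity: after 17.5 h compound exposure at 37 C, CellTiter-Fluor reagent added to PGC/ERR cells for 30 min and fluorescence read. Cells were seeded at 2,000 per well 6 h before dosing.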"}, "[10]": {"biological_target": "Nuclear receptor subfamily 1 group I member 3 (Homo sapiens) (UniProt Q14994)", "test": "qHTS assay to identify small molecule agonists of the constitutive androstane receptor (CAR) signaling pathway (AID 1224839); also: nearly all actives have a fitted effect of over 15% in size", "details": "HepG2 hCAR CYP2B6-luciferase, agonist mode, 24 h; series mostly up to 92.4 µM", "summary_of_the_method": "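HepG2 cells stably expressing hCAR and a CYP2B6-2.2kb luciferase reporter were treated with compounds at 15 concentrations plus 0.75 uM PK11195 (final) for 24 h at 37 C; luminescence was read after ONE-Glo addition.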"}, "[11]": {"biological_target": "Luciferin 4-monooxygenase (Photinus pyralis) (UniProt P08659)", "sequence (P08659 whole entry, looked up)": "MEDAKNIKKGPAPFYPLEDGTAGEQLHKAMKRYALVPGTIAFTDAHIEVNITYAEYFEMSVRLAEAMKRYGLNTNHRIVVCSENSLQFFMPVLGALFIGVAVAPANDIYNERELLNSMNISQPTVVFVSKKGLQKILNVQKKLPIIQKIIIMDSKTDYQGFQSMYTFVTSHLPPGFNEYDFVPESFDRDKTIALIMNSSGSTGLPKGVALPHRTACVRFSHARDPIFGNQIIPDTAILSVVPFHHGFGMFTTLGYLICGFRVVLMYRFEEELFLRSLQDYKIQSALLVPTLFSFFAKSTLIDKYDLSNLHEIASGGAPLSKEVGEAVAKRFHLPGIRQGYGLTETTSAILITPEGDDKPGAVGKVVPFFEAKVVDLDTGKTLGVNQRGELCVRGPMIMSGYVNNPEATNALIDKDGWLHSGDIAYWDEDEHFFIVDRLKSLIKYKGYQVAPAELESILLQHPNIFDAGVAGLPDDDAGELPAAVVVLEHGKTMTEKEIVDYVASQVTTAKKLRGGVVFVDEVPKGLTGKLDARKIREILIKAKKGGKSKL", "test": "qHTS assay to identify small molecule inhibitors of firefly luciferase (AID 1224835); also: nearly all actives have a fitted effect of over 25% in size", "details": "purified P. pyralis luciferase, luminescence inhibition; series mostly up to 115 µM", "summary_of_the_method": "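Quantitative HTS format; KM concentrations of both substrates. Purified P. pyralis FLuc activity quantified from luminescence images.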"}, "[12]": {"test": "qHTS assay to identify small molecule agonists of the retinoic acid receptor (RAR) signaling pathway (AID 1159553); as to activation: % is scaled to controls: 0 for no effect and ±100 for the full control effect", "details": "C3RL4 RARE luciferase reporter, agonist, 6 h; activation: at 73.3 µM (top of the series) unless noted", "summary_of_the_method": "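Luminescence was measured 30 min after luciferase reagent addition at room temperature. Before that, C3RL4 reporter cells (1,000 per well, plated overnight) were treated with compound for 6 hr at 37 C and 5% CO2.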"}, "[13]": {"test": "qHTS assay to identify small molecule antagonists of the estrogen related receptor signaling pathway with the pleiotropic PPARgamma coactivator (PGC) from Tox21 10K library (AID 1224841; call rule not given here; also: actives are mostly falling curves and most rising ones were filed inactive; nearly all actives have a fitted effect of over 50% in size)", "details": "PGC/ERR reporter cell line, ONE-Glo luciferase, 18 h; series mostly up to 92.4 µM", "summary_of_the_method": "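Luminescence (One-Glo, 30 min at room temperature) after 18 h compound treatment at 37 C of PGC/ERR reporter cells plated at 2,000 cells/well and settled 6 h beforehand.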"}},
  "note": "Several values for one entry are separate records, joined by “and”; a condition that tells them apart may be missing. Identical values can stand only once. Inconclusive means that the source gave no clear call. Such entries were picked first, then a sample of the others. Where the call is inconclusive, the potency comes from a doubtful curve fit. Activity calls are given as the source filed them. Unless noted, calls follow the shape of the dose curve; as a rule, active = well fitted curve in the direction sought with a large enough effect in the repeat runs; inconclusive = weak or mixed curves; inactive = no such curve, though single readings can be large; an effect the other way counts as inactive or inconclusive. Potency is read from the fitted curve at half-maximal effect; tags tell the direction and shape of the fitted curve or compound fluorescence and quenching.",
  "data": [
    {"smiles": "O=C1c2ccccc2C(=O)C1(O)O", "values": [
      {"measurement": "Potency", "setting": "[1]", "value": "inconclusive: 68.9 µM [cytotoxic, single point]"},
      {"measurement": "Potency", "setting": "[2]", "value": "inconclusive: 61.4 µM [cytotoxic, partial curve]"},
      {"measurement": "Potency", "setting": "[3]", "value": "inconclusive: 61.4 µM [cytotoxic, partial curve]"},
      {"measurement": "Potency", "setting": "[4]", "value": "inconclusive: 54.8 µM [cytotoxic, partial curve]"},
      {"measurement": "Potency", "setting": "[5]", "value": "inconclusive: 68.9 µM [inhibitor, single point]"},
      {"measurement": "activation", "setting": "[6]", "value": "inconclusive: -35.1%"},
      {"measurement": "Potency", "setting": "[7]", "value": "inconclusive: 43.9 µM [cytotoxic, partial curve]"}
    ]},
    {"smiles": "CN(N=O)C(=O)N[C@@H]1[C@@H](O)[C@H](O)[C@@H](CO)O[C@@H]1O", "values": [
      {"measurement": "Potency", "setting": "[8]", "value": "inactive"}
    ]},
    {"smiles": "C=C(C)C(=O)OCC(CC)(COC(=O)C(=C)C)COC(=O)C(=C)C", "values": [
      {"measurement": "Potency", "setting": "[1]", "value": "inconclusive: 0.0247 µM [cytotoxic, partial curve, poor fit]"},
      {"measurement": "Potency", "setting": "[6]", "value": "inconclusive: 17.5 µM [inhibitor, partial curve]"}
    ]},
    {"smiles": "S=c1nc[nH]c2nc[nH]c12", "values": [
      {"measurement": "Potency", "setting": "[1]", "value": "inconclusive: 7.51 µM [cytotoxic, full curve] and inconclusive: 16.8 µM [cytotoxic, partial curve, poor fit]"},
      {"measurement": "Potency", "setting": "[3]", "value": "inconclusive: 3.76 µM [cytotoxic, full curve, poor fit]"},
      {"measurement": "Potency", "setting": "[4]", "value": "inconclusive: 2.37 µM [cytotoxic, full curve] and inconclusive: 4.22 µM [cytotoxic, full curve, poor fit]"},
      {"measurement": "Potency", "setting": "[9]", "value": "inconclusive: 9.45 µM [cytotoxic, partial curve]"},
      {"measurement": "Potency", "setting": "[6]", "value": "inconclusive: 53.1 µM [falling, partial curve, poor fit]"}
    ]},
    {"smiles": "Cc1cc(O)ccc1O", "values": [
      {"measurement": "Potency", "setting": "[1]", "value": "inconclusive: 77.8 µM [cytotoxic, single point]"},
      {"measurement": "Potency", "setting": "[2]", "value": "active: 61.8 µM"},
      {"measurement": "Potency", "setting": "[10]", "value": "inconclusive: 27.6 µM [activator, partial curve]"},
      {"measurement": "Potency", "setting": "[6]", "value": "inconclusive: 27.6 µM"},
      {"measurement": "Potency", "setting": "[7]", "value": "inconclusive: 55.5 µM [cytotoxic, single point]"}
    ]},
    {"smiles": "Nc1nc2ccc([N+](=O)[O-])cc2s1", "values": [
      {"measurement": "Potency", "setting": "[1]", "value": "inconclusive: 43.3 µM [rising, partial curve, poor fit]"},
      {"measurement": "Potency", "setting": "[11]", "value": "inconclusive: 35.6 µM [inhibitor]"},
      {"measurement": "Potency", "setting": "[3]", "value": "inconclusive: 30.6 µM [cytotoxic, partial curve, poor fit]"},
      {"measurement": "Potency", "setting": "[4]", "value": "inconclusive: 61.1 µM [cytotoxic, partial curve, poor fit]"},
      {"measurement": "Potency", "setting": "[10]", "value": "inconclusive: 27.3 µM [activator, partial curve]"},
      {"measurement": "Potency", "setting": "[6]", "value": "inconclusive: 68.6 µM [falling, partial curve, poor fit]"},
      {"measurement": "Potency", "setting": "[7]", "value": "inconclusive: 61.6 µM [cytotoxic, partial curve, poor fit]"}
    ]},
    {"smiles": "CC1(C)O[C@@H]2C[C@H]3[C@@H]4C[C@H](F)C5=CC(=O)C=C[C@]5(C)[C@@]4(F)[C@@H](O)C[C@]3(C)[C@]2(C(=O)CO)O1", "values": [
      {"measurement": "Potency", "setting": "[8]", "value": "inconclusive: 38.6 µM [inhibitor, partial curve]"},
      {"measurement": "Potency", "setting": "[12]", "value": "inconclusive: 77 µM [activator, partial curve, poor fit]"},
      {"measurement": "activation", "setting": "[6]", "value": "inconclusive: -22.9%"},
      {"measurement": "Potency", "setting": "[7]", "value": "inconclusive: 61.6 µM [cytotoxic, partial curve, poor fit]"}
    ]},
    {"smiles": "CC(C)(O)c1ccc(CNC(=O)c2cccnc2Oc2ccc3nonc3c2)cc1", "values": [
      {"measurement": "Potency", "setting": "[8]", "value": "inconclusive: 24.3 µM [inhibitor, partial curve]"},
      {"measurement": "Potency", "setting": "[12]", "value": "inactive"},
      {"measurement": "Potency", "setting": "[9]", "value": "inconclusive: 61.1 µM [cytotoxic, partial curve, poor fit]"},
      {"measurement": "Potency", "setting": "[13]", "value": "inconclusive: 68.6 µM [falling, single point]"}
    ]}
  ]
}
